# “And” between values parts separate entries of the source, which are not always exact repeats. Equal entries are not always repeated. Screen size: about 280,000 compounds; about 1,100 (0.39%) were called active. Inconclusive means that the source gave no clear call. Such entries were picked first, then a sample of the others. Calls follow the shape of the dose curve; as a rule, active = well fitted inhibition curve with a large enough effect; inconclusive = small, poorly fitted or top-dose-only effect, or effect the other way; inactive = flat fitted curve, though single readings scatter. A potency beside an inconclusive call is a rough fit, not a confirmed value.
# Biological target: Microtubule-associated protein tau (Homo sapiens) (UniProt P10636)
# Assay: qHTS for Inhibitors of Tau Fibril Formation, Fluorescence Polarization; also: nearly all actives have a fitted effect of over 55% in size
# Details: K18 P301L tau heparin fibrillization, Alexa594 FP, 6 h; series mostly up to 57.7 µM; activity, negative = inhibition: at the top concentration
# Summary of the method: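 Steps: dispense K18 P301L tau (15 uM plus 0.24 uM Alexa 594 tracer, final) in pH 7 sodium acetate; add compound; add heparin (20 uM final); incubate 6 hr, 37 C; add ThT (30 uM final); after 1 hr ambient, read FP.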
# % is scaled to controls: 0 for no effect and ±100 for the full control effect; potency is read from the fitted curve at half-maximal effect; tags tell the direction and shape of the fitted curve.
# Sequence of UniProt P10636 (P10636 whole entry, looked up): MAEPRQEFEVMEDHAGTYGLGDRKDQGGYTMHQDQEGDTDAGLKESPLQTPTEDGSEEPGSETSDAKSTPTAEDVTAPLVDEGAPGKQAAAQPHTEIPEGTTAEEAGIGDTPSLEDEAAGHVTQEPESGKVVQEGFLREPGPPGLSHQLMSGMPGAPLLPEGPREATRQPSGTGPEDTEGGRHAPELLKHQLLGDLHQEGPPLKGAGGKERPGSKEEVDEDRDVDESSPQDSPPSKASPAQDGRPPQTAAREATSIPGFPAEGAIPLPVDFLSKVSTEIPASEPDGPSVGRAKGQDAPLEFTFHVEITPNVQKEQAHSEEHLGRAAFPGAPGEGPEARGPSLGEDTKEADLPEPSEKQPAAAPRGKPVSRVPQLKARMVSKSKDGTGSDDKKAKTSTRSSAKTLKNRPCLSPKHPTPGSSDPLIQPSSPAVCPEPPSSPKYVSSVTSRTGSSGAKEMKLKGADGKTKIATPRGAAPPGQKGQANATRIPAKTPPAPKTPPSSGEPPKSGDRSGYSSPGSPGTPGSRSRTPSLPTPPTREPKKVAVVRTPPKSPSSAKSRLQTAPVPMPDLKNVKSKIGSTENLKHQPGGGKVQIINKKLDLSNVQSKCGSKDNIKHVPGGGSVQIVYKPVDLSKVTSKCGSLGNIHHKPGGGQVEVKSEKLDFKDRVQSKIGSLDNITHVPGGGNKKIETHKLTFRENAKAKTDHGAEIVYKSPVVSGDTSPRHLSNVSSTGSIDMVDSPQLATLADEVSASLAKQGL
Compound,Potency,"activity, negative = inhibition"
O=C(Nc1ccc(Br)cc1)c1ccc(F)c(S(=O)(=O)N2CCCc3ccccc32)c1,active: 15.8 µM,
Cc1cccc(NC(=O)Cn2cc(C(=O)c3ccccc3)c3ccccc32)c1,"inconclusive: 14.1 µM [inhibitor, partial curve]",
Clc1ccccc1CN1CCN(c2cccc3[nH]ccc23)CC1,"inconclusive: 20 µM [activator, single point]",
O=C(OC1CCN(CCCl)CC1)C(c1ccccc1)c1ccccc1,,inactive: 14.7%
CN1C(=O)N(C)C(=O)C2(Cc3c(ccc4ccccc34)N(C)C2)C1=O,"inconclusive: 31.6 µM [inhibitor, partial curve, poor fit]",
O=C(O)[C@H]1[C@H]2CN[C@H](C(=O)O)[C@H]21,inactive,
O=C(CSc1oc(-c2ccccc2)nc1S(=O)(=O)c1ccc(Cl)cc1)Nc1ccc(F)cc1,"inconclusive: 12.6 µM [inhibitor, partial curve]",
O=C1NC(=O)N(Cc2ccco2)C(=O)/C1=C/C=C/c1ccco1,"inconclusive: 12.6 µM [inhibitor, partial curve]",
C[C@]12CC[C@@H]3c4ccc(O)c(O)c4CC[C@H]3[C@@H]1CC[C@@H]2O,"inconclusive: 28.2 µM [inhibitor, partial curve]",
O=C1C=Cc2ccccc2C1=O,active: 4.47 µM,
CC(C)c1ccc(N2C(=O)NC(=O)/C(=C\c3cnc(-c4ccccc4)nc3)C2=O)cc1,"inconclusive: 22.4 µM [inhibitor, partial curve]",
Fc1ccc2c(c1)nnn2C1CCN(Cc2nnnn2CCc2ccccc2)CC1,,inactive: -5.91%
CC[n+]1c(-c2ccccc2)c2cc(N)ccc2c2ccc(N)cc21,active: 8.91 µM and active: 11.2 µM,
COc1ccc(Cl)cc1NC(=O)CN1C(=O)CN=C(c2ccccc2)c2cc(Cl)ccc21,"inconclusive: 39.8 µM [inhibitor, single point]",
CC(n1cc(C[C@H](N)C(=O)O)c2ccccc21)n1cc(C[C@H](N)C(=O)O)c2ccccc21,"inconclusive: 12.6 µM [inhibitor, partial curve]",
COC1=CC23CCCN2CCc2cc4c(cc2C3C1O)OCO4 (stereo not drawn),"inconclusive: 39.8 µM [inhibitor, single point]",
COc1ccc(OCC(=O)N2CCN(Cc3ccc4c(c3)OCO4)CC2)cc1,,inactive: 4.99% [at 2.34 µM]
CSc1ccc(C(=O)C2CCCN(Cc3cc4ccccc4[nH]3)C2)cc1 (stereo not drawn),"inconclusive: 44.7 µM [inhibitor, partial curve]",
CN1C(=O)N(C)C(=O)C(CCc2ccncc2)(CCc2ccncc2)C1=O,,inactive: -0.0265%
COc1cc2c(cc1O)-c1c(O)c(OC)cc3c1[C@H](C2)N(C)CC3,"inconclusive: 22.4 µM [inhibitor, single point]",
O=C1NC(=O)N(Cc2ccco2)C(=O)/C1=C\c1cccn1CCOc1ccc(Cl)cc1,,inactive: -14.7%
C=CCn1c(O)c(C(CC)=Nc2ccc(N(C)C)cc2)c(=O)[nH]c1=O,"inconclusive: 31.6 µM [inhibitor, single point]",

Compound,Potency,"activity, negative = inhibition"
Cn1nc(-c2ccc(C(=O)Nc3ccc(OC(F)(F)F)cc3)cc2)c2ccccc2c1=O,"inconclusive: 25.1 µM [inhibitor, partial curve]",
CN1C(=O)/C(=C/c2cccn2-c2ccc3ccccc3c2)C(=O)NC1=S,active: 31.6 µM,
CC1=C(O)C(=O)[C@H]2O[C@@H]2C1=O,active: 3.98 µM,
CCOC(=O)C1=CC(=C2C(=O)N(CC)C(=S)N(CC)C2=O)c2ccccc2O1,"inconclusive: 39.8 µM [inhibitor, single point]",
O=C1CC2OCC=C3CN4CC[C@]56c7ccccc7N1C5C2[C@H]3C[C@H]46 (stereo partly drawn),,inactive: -1.34%
O=c1c(O)c(-c2ccc(O)c(O)c2)oc2c(O)c(O)cc(O)c12,active: 7.94 µM,
CCOC(=O)c1cccc(NC(=O)NCc2ccc3c(c2)CCN3C(=O)c2ccccc2)c1,"inconclusive: 35.5 µM [inhibitor, partial curve]",
CC(=O)Nc1ccc(N=Cc2c(O)n(Cc3ccco3)c(=O)[nH]c2=O)cc1,"inconclusive: 12.6 µM [inhibitor, partial curve]",
COc1ccc(OC)c(-n2c(O)c(/C=C3\C(C)=Nc4ccccc43)c(=O)[nH]c2=O)c1,,inactive: -11.4%
N#Cc1ccccc1Cn1cc(C(=O)c2cccs2)c2ccccc21,"inconclusive: 28.2 µM [inhibitor, partial curve]",
COc1ccc(C(=O)Nc2ccc(Cl)cc2C(=O)c2ccccc2)c(OC)c1,"inconclusive: 12.6 µM [inhibitor, partial curve, poor fit]",
O=C1/C(=C\c2ccc(Cl)cc2Cl)N2CCC1CC2,"inconclusive: 1 µM [inhibitor, single point]",
COc1cccc(C(=O)C2CCCN(C3CCOCC3)C2)c1 (stereo not drawn),,inactive: -1.22%
Cn1cccc1/C=C1/C(=O)NC(=S)N(Cc2ccc(F)cc2)C1=O,active: 35.5 µM,
Cc1ccc2c(c1)C1CN(C)CCC1N2C(=O)Nc1cccc(Cl)c1 (stereo not drawn),"inconclusive: 35.5 µM [inhibitor, partial curve, poor fit]",
NC(Cc1ccc(N(CCCl)CCCl)cc1)C(=O)O (stereo not drawn),"inactive and inconclusive: 22.4 µM [inhibitor, partial curve, poor fit]",
CCCN1CCc2cc(O)cc3c2C1Cc1ccc(O)c(O)c1-3 (stereo not drawn),active: 14.1 µM and active: 35.5 µM,
Cc1cccc(-n2c(C)nc3ccccc3c2=O)c1C,,inactive: -1.59%
CC(=O)c1c(O)c(C)c(O)c(Cc2c(O)c3c(c(C(=O)/C=C\c4ccccc4)c2O)OC(C)(C)C=C3)c1O,"inconclusive: 44.7 µM [inhibitor, single point]",
C=CCN1C(=O)/C(=C/c2ccc3c(c2)CCCN3CCC)C(=O)NC1=S,"inconclusive: 17.8 µM [inhibitor, single point]",
Oc1ccc(/C=N/NP(=S)(c2ccccc2)c2ccccc2)cc1,"inconclusive: 20 µM [inhibitor, single point]",

# Source: PubChem BioAssay AID1468 (National Center for Advancing Translational Sciences (NCATS), 2008)
